SMILES strings stand for the structures. This is one part of the list. Shown are side measurements of this screen, not its main read-out; they come without a call.

Assay in all cases: Primary Screen for Target Class Profiling of Small Molecule Inhibitors of Methyltransferases
The target of experiment [1] is Glycine N-methyltransferase (Homo sapiens) (UniProt Q14749). The note with it: purified enzyme, MTase-Glo SAH luminescence; measured here: GNMT inhibition; at 40 µM; stronger effect = lower value. From the text:
(§1) PI: Matthew D. Hall Ph.D. and Quinlin M. Hanson Ph.D.
(§2) National Center for Advancing Translational Sciences (NCATS)
(§3) National Institute of Health (NIH), Rockville, MD
(§4) Target class profiling (TCP) is a chemical biology approach amenable to investigating understudied biological targets. TCP is achieved by developing a generalizable assay platform and applying it to screen a curated set of compound libraries against representative members of a target class. Small molecule methyltransferases (SMMTase) are a subclass of methyltransferase that act on metabolites to modulate signaling pathways, metabolize xenobiotics, or balance the available methyl pool. We screened four curated libraries totaling 27,574 unique compounds against the SMMTases nicotinamide N-methyltransferase (NNMT), phenylethanolamine N-methyltransferase (PNMT), histamine N-methyltransferase (HNMT), glycine N-methyltransferase (GNMT), catechol O-methyltransferase (COMT), and guanidinoacetate N-methyltransferase (GAMT). The data generated by this TCP can be leveraged for informed tool molecule development. For example, in the associated publication we identified a chemotype of HNMT-selective inhibitors. Additionally, we identified a putative SMMTase-selective inhibitor with potential as a tool molecule for studying broader methyltransferase biology.
(§5) High-through put screening assays were developed at the National Center for Advancing Translational Science (NCATS) for the enzymes NNMT, PNMT, HNMT, GNMT, COMT, and GAMT. Enzymatic activity was measured as a function of SAM cofactor conversion using the MTase Glo kit (Promega) for all enzymes. All assays were performed in 1536-well format with substrates and SAM concentrations at KM values. Enzyme concentration and assay timing were optimized for 10-20% SAM conversion. Initial screening of 27,574 compounds was done as single-point assays using the highest compound concentration (40 uM). […] These compounds were replated in 11-point dose response and assayed against NNMT, PNMT, HNMT, GNMT, COMT, GAMT, and a counter-assay. The IC50 and efficacy (maximal response) values were determined for each dose-response curve. These values are also accounted for in the area under the curve (AUC) values.
(§6) PROTOCOL TABLE (as described by Inglese J, Shamu CE and Guy RK. 2007)
(§7) SEQUENCE No. (e.g., 1, 2, 3, etc.); […] (e.g., Cells, Incubation, Reagent, etc.); VALUE; DESCRIPTION.
(§8) 1; Reagent; 2 uL; SMMTase Enzyme (2x) in reaction buffer, columns 1- 48.
(§9) 2; Reagent; 1 uL; SAM (4x) in reaction buffer, columns 1-48.
(§10) 3; Controls; 23 nL; DMSO in column 4; sinefungin in DMSO (0 uM - 40 uM) in 7-point 1:2 dilution series (n = 2) in column 2.
(§11) 4; Compounds; 23 nL; Columns 5-48.
(§12) 5; Reagent; 1 uL; Substrate (4x) in reaction buffer, columns 2-48.
(§13) 6; Time; 20-30 min; Incubation.
(§14) 7; Reagent; 1 uL; MTase-Glo reagent (5X), columns 1-48.
(§15) 8; Time; 30 min; Incubation.
(§16) 9; Reagent; 5 uL; MTase-Glo Detection reagent, columns 1-48.
(§17) 10; Time; 30 min; Incubation, luminescence evolution.
(§18) 11; Detection; Luminescence; ViewLux uHTS Microplate Imager (PerkinElmer).
(§19) NOTES (numbers refer to Sequence numbers above)
(§20) 1, 2, 5. White Medium Binding Greiner 1536-well plates (Cat #789175-F, Greiner Bio-One, Monroe, NC); Reaction buffer: 50 mM Tris, pH 8.0, 3 mM MgCl2, 1 mM EDTA, 50 mM NaCl, 1 mM DTT, and 0.1 mg/mL BSA. Evaporation was prevented by covering assay plates with metal lids containing holes to allow gas diffusion.
(§21) 1. Six SMMTase were profiled: HNMT, GNMT, PNMT, COMT, NNMT, GAMT
(§22) 5. The corresponding substrate was used for each enzyme: HNMT - 5.3 uM Histamine; GNMT - >500 uM Glycine; PNMT - 16.2 uM Norephinephrine; COMT - 13.7 uM Norephinephrine; NNMT - 3.8 uM Nicotinamide; GAMT - 2.5 uM Guanidinoacetate.6, 8, 10. Room temperature
(§23) 6. Final reaction conditions: 10 nM COMT, 5 uM SAM, 15 uM norepinephrine, 50 mM Tris, pH 8.0, 3 mM MgCl2, 1 mM EDTA, 50 mM NaCl, 1 mM DTT, and 0.1 mg/mL BSA; refer to tables 2 and S1 for specific timing.
8. […]

Experiment [2] has as its target Guanidinoacetate N-methyltransferase (Homo sapiens) (UniProt Q14353). The note with it: purified enzyme, MTase-Glo SAH luminescence; measured here: GAMT inhibition; at 40 µM; stronger effect = lower value.
From the text: as §1, §2, §3, §4, §5, §6, §7, §8, §9, §10, §11, §12, §13, §14, §15, §16, §17, §18, §19, §20, §21, §22, §23
8. […]

For experiment [3], the target named is Histamine N-methyltransferase (Homo sapiens) (UniProt P50135). The note with it: purified enzyme, MTase-Glo SAH luminescence; measured here: HNMT inhibition; at 40 µM; stronger effect = lower value.
From the text: as §1, §2, §3, §4, §5, §6, §7, §8, §9, §10, §11, §12, §13, §14, §15, §16, §17, §18, §19, §20, §21, §22, §23
8. […]

Experiment [4] has as its target Nicotinamide N-methyltransferase (Homo sapiens) (UniProt P40261). The note with it: purified enzyme, MTase-Glo SAH luminescence; measured here: NNMT inhibition; at 40 µM; stronger effect = lower value.
From the text: as §1, §2, §3, §4, §5, §6, §7, §8, §9, §10, §11, §12, §13, §14, §15, §16, §17, §18, §19, §20, §21, §22, §23
8. […]

For experiment [5], the target named is Phenylethanolamine N-methyltransferase (Homo sapiens) (UniProt P11086). The note with it: purified enzyme, MTase-Glo SAH luminescence; measured here: PNMT inhibition; at 40 µM; stronger effect = lower value.
From the text: as §1, §2, §3, §4, §5, §6, §7, §8, §9, §10, §11, §12, §13, §14, §15, §16, §17, §18, §19, §20, §21, §22, §23
8. […]
% is set by controls: 0 for no effect and ±100 for the full control effect.

As to `CCC(C)NC(=O)c1ccc2c(=O)n(C)c3nn(CC(=O)c4cccc(Cl)c4)c(=O)n3c2c1` (stereo not given), the activity change, negative = inhibition in experiment [1] was 1.93%; in experiment [2], 0%; in experiment [3], 2.51%; in experiment [4], -6%; in experiment [5], 4.42%.
The corresponding values for `CC1(C(=O)NC2CCCCC2)Cn2c(cc3ccccc32)C(=O)N1Cc1cccs1` (stereo not given) are -1.15%, 0%, 2.49%, -0.232% and -11.2%.
The corresponding values for `Cc1nc(C#Cc2ccnc(Cl)c2)c(C)n1-c1ccc(F)cc1` are -41.1%, -19.8%, -47.5%, -51.1% and -41.5%.
For the compound `COc1ccc(C2(C(=O)N3CCOCC3)CCOCC2)cc1`, the activity change, negative = inhibition in experiment [1] is -1.29%; in experiment [2], -2.81%; in experiment [3], -1.92%; in experiment [4], -1.8%; in experiment [5], 0.267%.
Regarding `Cc1ccc(C)c(N2CCN(C(=O)c3ccc4c(=O)nc5c(-c6cccc(F)c6)n[nH]n5c4c3)CC2)c1`, the activity change, negative = inhibition in experiment [1] was -26.6%; in experiment [2], -1.81%; in experiment [3], -12.6%; in experiment [4], -18.2%; in experiment [5], -9.01%.
The corresponding values for `COc1ccccc1OC1CCN(Cc2ccccc2C#N)CC1` are -4.57%, -2.33%, -4.6%, -4.68% and -5.94%.
Regarding `CC(C(=O)NCc1cccc(Br)c1)n1ccc2cc(S(=O)(=O)N3CCCC3)ccc21` (stereo not given), the activity change, negative = inhibition was -2.23% in experiment [1]; -2.69% in experiment [2]; -0.491% in experiment [3]; -12.5% in experiment [4]; -20.4% in experiment [5].
The matching figures for `O=C(NCC1CCC(=O)N(Cc2ccccc2)CC1)C1CCCCC1` (stereo not given): -4.87%, -6.68%, -2.54%, -10.2% and 6.19%.
The matching figures for `CC1CCC2(OC1)OC1CC3C4CC=C5CC(O)CC(O[C@@H]6OC[C@@H](O)[C@H](O)[C@H]6O)C5(C)C4CCC3(C)C1(O)C2C` (stereo not given in full): -0.406%, -3.53%, -0.675%, -15.9% and 0.395%.
The corresponding values for `Cn1nc(C2CCCC2)cc1N[S+](=O)([O-])c1ccccc1` are -0.434%, -2.28%, -0.275%, -4.64% and 2.7%.
Take `CN(C)S(=O)(=O)N1CCC(Oc2ccc(C(=O)NCCc3ccncc3)cc2)CC1`: the activity change, negative = inhibition in experiment [1] was -5.01%; in experiment [2] it was -7.33%; in experiment [3], -1.37%; in experiment [4], -12.7%; in experiment [5] it was -9.39%.
The matching figures for `Cc1cc(Nc2ncnc3ccc(-c4ccc(CNCCS(C)(=O)=O)o4)cc23)ccc1Oc1ccn2ncnc2c1`: -27.7%, -7.58%, -36.1%, -27.6% and -10%.
The matching figures for `CCCCN1C(=O)c2cc(C(=O)NCCc3c[nH]c4ccccc34)nn2CC1(C)C(=O)NC1CCCC1` (stereo not given): 6.08%, 0%, -8.62%, 1.14% and 5.01%.
The corresponding values for `CC(C)CCN1C(=O)c2ccc(-c3ccccc3)n2CC1(C)C(=O)NC1CCCCCC1` (stereo not given) are 3.04%, 4.47%, 0.436%, -0.215% and -0.52%.
Consider `COC1CCN(c2cccc(-c3cc(NC(C)=O)nc(-n4nc(C)cc4C)n3)n2)CC1`, for which the activity change, negative = inhibition was -33.3% in experiment [1]; 8.73% in experiment [2]; -15.4% in experiment [3]; -15.6% in experiment [4]; -3.48% in experiment [5].
